According to PubChem BioAssay AID1508642 (National Center for Advancing Translational Sciences (NCATS), 2021):
Screen size: about 43,000 compounds; about 200 (0.47%) were called active. About 12% were inconclusive and are not listed. The call rests on the fitted dose curve; in most records, active means well fitted cell-killing curve with a large enough effect; inconclusive means small, poorly fitted or top-dose-only effect, or effect the other way; inactive means flat fitted curve, though single readings scatter. The list shows a part of the results.

Test: Cell viability qHTS assay in S16 Pmp22-F2sN cells; further: nearly all actives have a fitted effect of over 65% in size
Details: S16 Pmp22-F2sN Schwann cells (luciferase reporters placed in the Pmp22 gene) viability, CellTiter-Glo, 24 h; series mostly up to 57.5 µM; activity change, negative = cytotoxicity: at the top concentration
Source text: Assay Provider: Jim Inglese Ph.D. National Center for Advancing Translational Science, National Institutes of Health, Rockville, MD CMT is a heterogeneous group of neurological disorders that affect approximately 1 in 2,500 people. In particular, the most common form of CMT, CMT1A is genetically linked to the duplication of the PMP22 gene which leads to Schwann cell overexpression, thus manifesting itself as a typical case of dose-sensitive diseases. To identify small molecule compounds that can mediate the expression of PMP22 we developed a phenotypic assay screening strategy by utilizing genome editing techniques to construct Schwann cell lines containing novel reporter technology to monitor the transcriptional or translational regulation of PMP22. For high sensitivity we use a bioluminescent reporter system embedded in the 3' UTR of the PMP22 gene (S16(c9) Pmp22-F2sN) to identify compounds that inhibit gene expression. […] We can further discriminate the effect of all transcriptionally active molecules on PMP22 translation or stability with an assay that incorporates a short NLuc peptide (HiBiT) at the C-terminus of expressed PMP22 (S16(f8) PMP22-HiBiT) allowing alpha complementation and luminescence detection of membrane-associated PMP22 protein. These assays were screened against the NCATS Sytravon Library Collection. Miniaturization of these assays to 1536-well plate format for quantitative high throughput screening (qHTS) yielded rich data sets immediately from the qHTS assay (S16(c9) Pmp22-F2sN), when compared with data from a cell viability assay (Cell TiterGlo) to identify compounds that decreased the output signals through cellular toxicity to streamline the selection process of actives for subsequent characterization using the HiBiT assay (S16(f8) PMP22-HiBiT).
Cell viability assay in S16 Pmp22-F2sN cells PROTOCOL TABLE (format as described by Inglese J, Shamu CE and Guy RK. 2007) SEQUENCE No. (e.g., 1, 2, 3, etc.); […] (e.g., Cells, Incubation, Reagent, etc.); VALUE and DESCRIPTION. 1. Cells. Add 500-1,000 cells in 4 uL in growth media (DMEM High Glucose, No Phenol Red media + 10% heat-inactivated FBS + 1% Pen/Strep supplemented media) per well into Greiner 1536-well white/solid bottom high base, TC-treated plates. 2. Compounds. Library compounds and controls added at 23nL per well, transferred by Pin Tool. 3. Incubation. Incubate plates at 37C, 5% CO2, 95% RH for 24 h. 4. Reagent. Add 3uL CellTiter-Glo per well of Greiner 1536-well plates. 5. Incubation. Incubate plates at room temperature for 15 min., protect from light. 6. Detector. FLuc luminescence measured using CCD-based camera (Viewlux). NOTES (numbers refer to Sequence numbers above; values are from representative experiments) 6. Luminescence Read: Clear filter; Exposure = 1 sec, Gain = High, Speed = Slow, Binning = 2X REFERENCES: 1. Inglese J, Shamu CE and Guy RK, Reporting data from high throughput screening of small molecule libraries, Nature Chemical Biology, 2007, 3(8): 438-441. doi.org/10.1038/nchembio0807-438 2. Yasgar A, Shinn P, Jadhav A, Auld DS, Michael S, Zheng W, Austin CP, Inglese J and Simeonov A, Compound Management for Quantitative High-Throughput Screening. J. Assoc. Lab. Auto., 2008, 13: 79-89. doi: 10.1016/j.jala.2007.12.004
On the % scale 0 is the no-effect control and ±100 the full control effect; potency means the concentration at half of the fitted maximal effect.

Row | SMILES | activity change, negative = cytotoxicity | Potency
1 | CCN(CC)CCCNC(=O)c1cn(C)c2ccc(S(=O)(=O)N3CCOCC3)cc2c1=O | inactive: 10.3% | 
2 | CCOC(=O)c1cccc(NC(=O)c2cc(-c3ccc(Cl)s3)nc3ccccc23)c1 | inactive: -24.8% | 
3 | COc1ccccc1NC(=O)c1sc2nc(-c3cc4ccccc4oc3=O)[nH]c(=O)c2c1C | inactive: -13.5% | 
4 | Cc1cc(C)cc(NC(=O)c2cccc(N3CCCS3(=O)=O)c2)c1 | inactive: 0.392% | 
5 | Cc1cccc(NC(=O)c2c(NC(=O)c3ccco3)sc3c2CCC(C(C)(C)C)C3)c1 (stereo unspecified) | inactive: -2.47% | 
6 | CN(Cc1ccccc1)C(=O)C1CCN(Cc2cc3ccccc3n2Cc2ccccc2)CC1 | inactive: -26.7% | 
7 | Cc1cccc(C(=O)Nc2nnc(SCc3cc(=O)n4cccc(C)c4n3)s2)c1 | inactive: 6.3% | 
8 | COc1ccc(C(=O)N/C(=C\c2cn(S(=O)(=O)N(C)C)c3ccccc23)C(=O)NCCCn2ccnc2)cc1 | inactive: -0.103% | 
9 | O=C(CSc1nnc(-c2ccccc2F)o1)N1CCc2ccccc21 | inactive: -0.544% | 
10 | CCOc1ccccc1NC(=O)CCNS(=O)(=O)c1ccc2c(c1)CCN2C(=O)C1CC1 | inactive: 0.406% | 
11 | CCC(Sc1nnc(-c2ccc(OC)cc2)c(-c2ccc(OC)cc2)n1)C(=O)Nc1cccc(OC)c1 (stereo unspecified) | inactive: -0.0548% | 
12 | Cc1ccc(OCCCC(=O)Nc2sc3c(c2C(N)=O)CCCC3)cc1 | inactive: 17.5% | 
13 | Cn1ncc2c(N3CCN(c4ccccc4Cl)CC3)ncnc21 | inactive: -12.7% | 
14 | CCCCN(C)C(=O)Cn1ncc2c([nH]c3ccc(C)cc32)c1=O | inactive: 6.74% | 
15 | Cc1ccc(/C=C/c2onc(C)c2S(=O)(=O)N2CCC(C(=O)NCc3ccc(N(C)C)cc3)CC2)cc1 | inactive: 7.95% | 
16 | CCCCS(=O)CC(O)CSc1nc(-c2ccc(OC)cc2)cc(-c2ccccc2)c1C#N (stereo unspecified) | inactive: -19.4% | 
17 | COc1ccc(NC(=O)CN(c2ccc(C)cc2)S(=O)(=O)c2cccs2)cc1OC | inactive: -2.59% | 
18 | CCC1CN(C(=O)Nc2ccccc2C(F)(F)F)c2ccccc2S1 (stereo unspecified) | inactive: -2.55% | 
19 | CCOC(=O)c1cccc(NC(=O)c2cnn(-c3ccccc3)c2-n2cccc2)c1 | inactive: -17.7% | 
20 | CC(=O)N1c2ccccc2C(=O)C1N1CCN(c2cc(Cl)ccc2C)CC1 (stereo unspecified) | inactive: -26.5% | 
21 | O=C(CSCc1cc(=O)c2ccccc2[nH]1)Nc1cccc(C(F)(F)F)c1 | inactive: 2.73% | 
22 | CC(=O)c1ccc(N2CCN(S(=O)(=O)c3ccc4[nH]c5c(c4c3)CCCCC5)CC2)cc1 | inactive: 2.56% | 
23 | COc1ccc(NC(=O)CN2C(=O)CC(c3ccco3)Sc3ccccc32)cc1OC (stereo unspecified) | inactive: 0.102% | 
24 | COC(=O)c1scc(-c2ccc(C)cc2)c1S(=O)(=O)Nc1c(C)cc(C)cc1C | inactive: 8.91% | 
25 | Cc1nc2c(-c3ccccc3)c(C)[nH]n2c(=O)c1Cc1ccc(C(C)C)cc1 |  | active: 8.91 µM
26 | CCS(=O)(=O)c1ncc(N(Cc2cccc(F)c2)Cc2ccco2)c(C(=O)Nc2ccccc2Cl)n1 | inactive: 3.21% | 
